The whole screen tested about 310,000 compounds, of which about 14,000 (4.5%) showed an effect of 50% or more. The effect is printed as a negative number. The list shows a part of the results.
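Note: peak tail current of the secondary pulse compared with the same well before compound.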

The target in the test is human ether-à-go-go-related gene (hERG) potassium channel (human, UniProt Q12809). Briefly: primary screen, population patch clamp on CHO cells stably expressing hERG.
Chain of human ether-à-go-go-related gene (hERG) potassium channel (Q12809 whole entry, looked up): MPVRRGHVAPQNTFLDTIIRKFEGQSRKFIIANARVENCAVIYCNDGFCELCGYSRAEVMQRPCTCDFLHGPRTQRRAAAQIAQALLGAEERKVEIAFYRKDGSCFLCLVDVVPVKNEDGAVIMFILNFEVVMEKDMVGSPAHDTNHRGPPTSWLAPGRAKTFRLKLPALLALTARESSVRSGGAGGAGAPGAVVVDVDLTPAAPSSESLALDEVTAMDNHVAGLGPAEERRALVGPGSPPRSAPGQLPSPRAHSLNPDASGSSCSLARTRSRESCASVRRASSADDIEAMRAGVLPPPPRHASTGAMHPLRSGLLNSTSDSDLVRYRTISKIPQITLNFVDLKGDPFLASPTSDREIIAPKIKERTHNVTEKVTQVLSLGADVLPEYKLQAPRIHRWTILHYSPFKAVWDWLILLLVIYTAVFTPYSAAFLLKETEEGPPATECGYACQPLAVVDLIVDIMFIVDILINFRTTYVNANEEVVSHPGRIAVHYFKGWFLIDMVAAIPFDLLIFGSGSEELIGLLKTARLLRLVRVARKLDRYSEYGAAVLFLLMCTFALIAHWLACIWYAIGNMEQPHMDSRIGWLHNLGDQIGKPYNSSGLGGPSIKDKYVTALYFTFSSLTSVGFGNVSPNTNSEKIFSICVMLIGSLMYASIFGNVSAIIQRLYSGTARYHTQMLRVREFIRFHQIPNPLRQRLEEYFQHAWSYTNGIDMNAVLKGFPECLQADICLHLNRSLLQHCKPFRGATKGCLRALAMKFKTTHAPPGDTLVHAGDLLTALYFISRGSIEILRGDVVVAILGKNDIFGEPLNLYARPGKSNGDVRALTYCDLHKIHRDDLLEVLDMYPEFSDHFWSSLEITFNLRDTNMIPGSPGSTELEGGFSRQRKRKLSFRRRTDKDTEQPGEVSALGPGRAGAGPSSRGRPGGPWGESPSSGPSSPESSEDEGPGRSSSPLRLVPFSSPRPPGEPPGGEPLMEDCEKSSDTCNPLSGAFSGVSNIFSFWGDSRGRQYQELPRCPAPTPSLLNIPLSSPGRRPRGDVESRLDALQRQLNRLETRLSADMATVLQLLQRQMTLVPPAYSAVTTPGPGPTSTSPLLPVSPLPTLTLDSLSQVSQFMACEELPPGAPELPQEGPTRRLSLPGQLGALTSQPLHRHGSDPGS
`COc1ccc(CCNC(=O)c2ccc(=O)[nH]c2)cc1OC`: the “hERG current change (%, negative = inhibition) at 10uM” value is listed as 18%.
Next, `COc1ccc(C)cc1NC(=O)c1ccc(CN2CCc3ccccc3C2)cc1`: 13.7%; `CCCCNS(=O)(=O)c1cccc(S(=O)(=O)N2CCCC2)c1`: -21.1%.
In the case of `Cn1c(Cc2cccs2)nnc1SCC(=O)Nc1ccccc1F`, the “hERG current change (%, negative = inhibition) at 10uM” value came to 1.93%.
In the case of `COc1ccccc1C(=O)N(CCC1CCCN1C)c1nc2ccccc2s1` (stereo not shown), the “hERG current change (%, negative = inhibition) at 10uM” value is -50.9%.
As to `CC1CCN(C(=O)COC(=O)c2ccc(Br)o2)CC1`, the “hERG current change (%, negative = inhibition) at 10uM” value stood at 14.7%.
`CN(C)c1ccc(CN(C(=O)C2COc3ccccc3O2)C2CCS(=O)(=O)C2)cc1` (stereo not shown): the “hERG current change (%, negative = inhibition) at 10uM” value was -4.46%.
Consider `CCCC(=O)NC(Nc1ccccc1OC)C(Cl)(Cl)Cl` (stereo not shown), for which the “hERG current change (%, negative = inhibition) at 10uM” value is -10.9%.
Take `COc1ccc(S(=O)(=O)N(CC(=O)NCc2ccncc2)c2ccc(C)cc2)cc1Br`: the “hERG current change (%, negative = inhibition) at 10uM” value is listed as -30%.
As to `Cc1cc(N(C(=O)c2ccco2)C(C(=O)NC2CCCCC2)c2ccccc2)ccc1-n1cnnn1` (stereo not shown), the “hERG current change (%, negative = inhibition) at 10uM” value was -18.4%.
For `COC(=O)CNC(=O)c1cn(CCC#N)nc1-c1ccc(F)cc1`, the “hERG current change (%, negative = inhibition) at 10uM” value came to 4.27%.
Consider `OCCNC(=S)Nc1ccc(Oc2ccccc2)cc1`, for which the “hERG current change (%, negative = inhibition) at 10uM” value is 14.7%.
Under `Cc1ccc(-c2noc(CN3C(C)CCCC3C)n2)cc1` (stereo not shown) stands 2.64%; under `Nc1nc(F)nc2c1ncn2[C@@H]1O[C@H](CO)[C@@H](O)[C@@H]1O`, 21.2%.
As for `C/C(=N\NC(=O)c1ccccc1)c1ccccc1F`, the “hERG current change (%, negative = inhibition) at 10uM” value was -14%.
With `CC(C)(O)c1[nH]c2ccc(C#N)cc2c1C(C)(C)O`, the “hERG current change (%, negative = inhibition) at 10uM” value worked out at 6.98%.
In the case of `CCN1C(=O)/C(=C2\C=Cc3cc(C)ccc3N2CC)OC1=S`, the “hERG current change (%, negative = inhibition) at 10uM” value is reported as 0.13%.
As for `COc1ccc(NS(=O)(=O)c2cccc(C(=O)NCCCn3ccnc3)c2)cc1`, the “hERG current change (%, negative = inhibition) at 10uM” value was 17.3%.
Under `CN1C(=O)C(=Cc2cn(CC(=O)N3CCCC3)c3ccccc23)C(=O)N(C)C1=O` stands 0.608%; under `CCCN(CCC)S(=O)(=O)c1ccc(N2CCCC2=O)c([N+](=O)[O-])c1`, -19.3%.
Next, `O/N=C(\c1ccccc1)c1nccc2ccccc12`: 8.11%; `CC1(C)C(=O)Nc2ccccc2N1C(=O)COC(=O)c1cc([N+](=O)[O-])ccc1N`: 13.7%; `Brc1ccc(CNCCCSc2ncccn2)cc1.Cl`: -33.4%.
Under `C=CCNC(=O)NC(=O)COC(=O)/C(C#N)=C/c1ccc(OC)cc1` stands 7.97%; under `CC1CC(=O)C2=C(C1)OC(N)=C(C#N)C2c1coc2ccccc2c1=O` (stereo not shown), -0.732%; under `CC1CCN(C(=O)c2nc[nH]c2C(=O)OCCNC(=O)OC(C)(C)C)CC1`, 4.23%.
Regarding `CC(=O)Nc1ccc(SC[C@H](Cc2ccccc2)N2CC[C@@H](O)CCC2=O)cc1`, the “hERG current change (%, negative = inhibition) at 10uM” value is recorded as -7.75%.
With `O=Cc1ccccc1-n1cncn1`, the “hERG current change (%, negative = inhibition) at 10uM” value is recorded as 9.96%.
Next, `COc1ccc([N+](=O)[O-])cc1N(CC(=O)NCCC1=CCCCC1)S(C)(=O)=O`: -0.972%; `NNC(=O)c1nc[nH]c1C(=O)Nc1ccc(Cl)cc1C(=O)c1ccccc1`: 21.5%.
`COc1ccc(Cc2nnc(NS(=O)(=O)Cc3ccccc3)s2)cc1`: the “hERG current change (%, negative = inhibition) at 10uM” value is reported as 8.96%.
For `Cc1cc(C(=O)CSc2n[nH]c(N)n2)c(C)n1-c1cc(F)ccc1F`, the “hERG current change (%, negative = inhibition) at 10uM” value was -4.75%.
On to `CC(=O)C1C(c2ccc([N+](=O)[O-])cc2)C2C(C)=NN=C2CC1(C)O` (stereo not shown), for which the “hERG current change (%, negative = inhibition) at 10uM” value is listed as 1.71%.
On to `CCCn1cc(S(=O)(=O)CC(=O)Nc2ccc(OC)cc2OC)c2ccccc21`, for which the “hERG current change (%, negative = inhibition) at 10uM” value is on record as -5.84%.
Consider `COc1ccc2cc(C#N)c(NC(C)C)nc2c1`, for which the “hERG current change (%, negative = inhibition) at 10uM” value amounted to 18.6%.
Regarding `CC(C)c1ccc(-c2nnn(CCC(=O)O)n2)cc1`, the “hERG current change (%, negative = inhibition) at 10uM” value is on record as -2.31%.
In the case of `CC(=O)C1=C(C)Nc2ncnn2C1c1ccc(O)cc1` (stereo not shown), the “hERG current change (%, negative = inhibition) at 10uM” value is 12.1%.
As for `O=C(c1ccc(S(=O)(=O)N2CCCCCC2)cc1)N1CCC(CN2C(=O)c3cccc4cccc(c34)C2=O)CC1`, the “hERG current change (%, negative = inhibition) at 10uM” value was determined as 5.96%.
Take `O=C1SC(SCc2ccccc2)=N/C1=C\c1ccco1`: the “hERG current change (%, negative = inhibition) at 10uM” value is reported as 3.04%.
Under `O=C(O)CSCCOc1ccc(OCCSCC(=O)O)cc1` stands 5.28%; under `Cc1ccc(CN2CCN(Cc3cc4ccccc4o3)CC2CCO)cc1` (stereo not shown), -43.1%; under `Clc1cnc(N/N=C/c2ccncc2)c(Cl)c1`, -6.08%.
For `COc1ccc(CC(NC(C)=O)C(=O)NC2CCN(c3nc(C)cc(C)c3C#N)CC2)c(OC)c1` (stereo not shown), the “hERG current change (%, negative = inhibition) at 10uM” value is -2.97%.
As for `O=C(CNC(=S)N(Cc1ccccc1)Cc1cccnc1)NCCc1ccccc1`, the “hERG current change (%, negative = inhibition) at 10uM” value is on record as -41.3%.
Next, `CCOC(=O)c1cccnc1NC(=O)c1ccncc1`: 25.3%; `CCN(CC)CCCNC(=O)c1cc2c(=O)n(CC)c3ccccc3c2s1`: -14.9%; `CCOC(=O)c1ccc(N(C(=O)c2cnccn2)C(C(=O)NC2CCCCC2)c2cn(C)nc2C)cc1` (stereo not shown): -48.2%.
In the case of `CC(=O)c1cccc(NC(=O)CCCCCn2nnc3ccccc3c2=O)c1`, the “hERG current change (%, negative = inhibition) at 10uM” value is 2.81%.
Next, `Cc1ccc(C2/C(=C(\O)c3cnn(-c4ccccc4)c3C)C(=O)C(=O)N2CCN(C)C)o1` (stereo not shown): 14.6%; `COC(=O)c1ccccc1NC(=S)N(Cc1ccc2c(c1)OCO2)Cc1cc2ccc(OC)cc2[nH]c1=O`: -13.6%.
On to `O=C(Cc1c(O)c2ccccc2[nH]c1=O)NC1CCCCCCC1`, for which the “hERG current change (%, negative = inhibition) at 10uM” value was -2.96%.
On to `Cc1cc(=O)oc2c(C)c(OC(C)C(=O)N3CC[C@@]4(O)CCCC[C@H]4C3)ccc12` (stereo partly shown), for which the “hERG current change (%, negative = inhibition) at 10uM” value was -2.87%.
As for `CC(=O)N(/N=C/c1ccc([N+](=O)[O-])o1)c1nc2ccccc2c(=O)n1-c1ccccc1`, the “hERG current change (%, negative = inhibition) at 10uM” value is -26.8%.
As for `CC(=O)NNC(=O)c1[nH]c2ccc(Cl)cc2c1-c1ccccc1`, the “hERG current change (%, negative = inhibition) at 10uM” value amounted to 10.4%.
Next, `CC(NC(=O)c1ccc(C(C)(C)C)cc1)C(=O)O` (stereo not shown): -0.74%.
